Out of some 310,000 compounds screened, about 18,000 (5.8%) were called active. This list was built around the results that the source calls inconclusive (neither active nor inactive); the mix of calls is not that of the screen. Calls follow the shape of the dose curve; as a rule, active = well fitted inhibition curve with a large enough effect; inconclusive = small, poorly fitted or top-dose-only effect, or another doubt; inactive = no such curve, though single readings can be large or run the other way. Potencies of inconclusive entries are left out as doubtful fits.
test: Primary qHTS for delayed death inhibitors of the malarial parasite plastid, 48 hour incubation; conditions: P. falciparum luciferase growth in erythrocytes; series mostly up to 28.7 µM
In short: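 Erythrocytes infected with P. falciparum carrying an integrated firefly luciferase reporter (2% hematocrit, 0.1% parasitemia final) were exposed to compounds in RPMI 1640 with 0.5% Albumax at 37 C, 5% CO2. Growth inhibition was scored as reduced luminescence.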
Potency is read from the fitted curve at half-maximal effect; tags tell the direction and shape of the fitted curve.

SMILES | Potency
CCOC(=O)C1(Cc2ccccc2C)CCCN(C(=O)c2cc(CC)nn2C)C1 (stereo not given) | inconclusive [inhibitor, single point]
Cc1ccc(NC(=O)CSCc2cc(=O)n3ccsc3n2)cc1 | inactive
CCc1nc(N=Nc2c(O)[nH]c3ccccc23)c2c3c(sc2n1)CCC3 | inconclusive [inhibitor, partial curve, poor fit]
O=C(Cn1c(N2CCN(C/C=C/c3ccccc3)CC2)nc2ccccc21)c1ccccc1 | inconclusive [inhibitor, single point]
Cc1cccc(CCN2C(N(C)C)=NC[C@@H]2CC(C)C)c1 | active: 13.1 µM
COc1ccc(OCC(=O)C2CC2)c(C#N)c1 | active: 1.85 µM
COc1cc(CNC(C)(C)CO)cc(Br)c1OCc1ccccc1 | inconclusive [inhibitor, single point]
C/C(=N\NC(=O)c1nnn(-c2nonc2N)c1-c1ccc2c(c1)OCO2)c1cccs1 | inconclusive [inhibitor, single point]
Cn1c(=O)c2c(-c3ccc(OC(F)F)cc3)cc(-c3ccccc3)nc2n(C)c1=O | inconclusive [inhibitor, full curve]
COc1ccc(C(CC(=O)N2CCCC(C)C2)c2c(OC)cc(OC)c3c(-c4ccccc4)cc(=O)oc23)cc1 (stereo not given) | active: 9.28 µM
Cc1ccc2nc(/C(C#N)=C/c3ccccc3C(=O)O)[nH]c2c1 | active: 2.08 µM
C[C@H](O)Cn1cnc2c1c(=O)n(C)c(=O)n2C | inactive
COC(=O)CNC(=O)c1cc(-c2ccncc2)nc2ccc(C)cc12 | inactive
Cc1ccc(C2=Nc3ccccc3N(C(=O)c3ccccc3)C(C)C2)cc1 (stereo not given) | inconclusive [inhibitor, partial curve]
Cc1cccc(C)c1N(CC(O)Cn1c2ccccc2c2ccccc21)S(C)(=O)=O (stereo not given) | inconclusive [inhibitor, single point]
CCn1c(=O)c(C(=O)NCc2ccc(Cl)cc2)c(O)c2ccccc21 | inconclusive [inhibitor, single point]
CCc1cccc(OCC(=O)Nc2ccc(S(=O)(=O)N3CCCC3)cc2)c1 | inconclusive [inhibitor, single point]
Cn1c(CO)cnc1SCc1c(Cl)cccc1Cl | inactive
CC(=O)N1CCc2cc(S(=O)(=O)CCC(=O)N3CCN(c4ccccc4)CC3)ccc21 | inconclusive [inhibitor, single point]
Cc1ccc(N2C(=O)C3C(C2=O)C(C(=O)c2ccc(Cl)cc2)N2CCCC32)cc1 (stereo not given) | inconclusive [inhibitor, single point]
Cc1ccn2cc(-c3ccc(O)c(O)c3)nc2c1 | inactive
COc1ccc(C(=O)Nc2ccc(C3=NNC(=O)CC3C)cc2NC(=O)c2ccc(OC)cc2)cc1 (stereo not given) | inconclusive [inhibitor, single point]
Cc1c(=O)n(OCc2ccccn2)c2ccccc2[n+]1[O-] | inactive

SMILES | Potency
CCOC(=O)Nc1ccc2c(c1)nc(CN1CCN(C(C)=O)CC1)n2C | inactive
Cc1cc(C)cc(N(C(=O)CNC(=O)c2ccco2)C(C(=O)NC2CCCCC2)c2ccncc2)c1 (stereo not given) | inconclusive [inhibitor, single point]
Cc1ccc(C)c(NC(=O)CCc2nnc3ccc(NCc4ccco4)nn23)c1 | inactive
COc1ccc(S(=O)(=O)N2CCOC23CCN(S(=O)(=O)c2ccc([N+](=O)[O-])cc2)CC3)cc1 | inconclusive [inhibitor, partial curve]
COc1ccc(-c2nc3ccc(C)cn3c2NCc2ccccc2)cc1SC1CCCCC1 | active: 10.4 µM
O=C(OCc1ccccc1)c1ccc2c(c1)-c1ccccc1C2=O | active: 9.28 µM
C=CCn1cc(/C=N\NC(=O)c2cc3c(ccc4ccccc43)o2)c2ccccc21 | inconclusive [inhibitor, single point]
O=C(CN1c2cccc3cccc(c23)S1(=O)=O)N1CCN(c2ccc(F)cc2)CC1 | inconclusive [inhibitor, single point]
CC(C)c1cccc(C2=CC(=O)C[C@H](c3ccc(F)cc3)C2)c1 | active: 1.65 µM
O=C(C[n+]1cc(Br)cc(Br)c1)c1ccccc1 | inactive
Cc1cc(C)c(S(=O)(=O)N2CCOC2CNC(=O)C(=O)NCCCn2ccnc2)c(C)c1 (stereo not given) | inconclusive [inhibitor, single point]
Cc1cccc(NC(=O)NCc2cccnc2)c1C | inactive
COc1ccc(S(=O)(=O)N2CCN(Cc3cc(OC)c(O)c(OC)c3)CC2)cc1 | inactive
Cc1cccc(C)c1OCc1cc(C(=O)N(C)Cc2cc(C3CC3)n[nH]2)no1 | inconclusive [inhibitor, partial curve]
O=C(c1ccco1)N1CCN(c2ccnc3cc(Cl)ccc23)CC1 | inconclusive [inhibitor, single point]
O=C(OCC(=O)N1CCCC1=O)C1CCN(S(=O)(=O)c2c(Cl)cccc2Cl)CC1 | inactive
c1ccc(-c2noc(C34CC5CC(CC(C5)C3)C4)n2)nc1 | inconclusive [inhibitor, single point]
CC(C)(C)c1cc(/C=C2\NC(=O)NC2=O)cc(C(C)(C)C)c1O | inconclusive [inhibitor, single point]
O=C1C=CC(=O)N1c1ccc(OC(F)F)cc1 | inactive
CCCOc1ccc(C2C(=O)N(C3CCCCC3)CC(=O)N2CCC)cc1OC (stereo not given) | inconclusive [inhibitor, partial curve, poor fit]
COc1cc(CN2CCC(n3nccc3NC(=O)CCCc3ccccc3)CC2)ccc1F | inconclusive [inhibitor, single point]
Cc1nn(C2CCS(=O)(=O)C2)c(Cl)c1/C=C/C(=O)OCC(=O)c1c[nH]c2ccccc12 (stereo not given) | inconclusive [inhibitor, partial curve, poor fit]

— PubChem BioAssay AID504832 (National Center for Advancing Translational Sciences (NCATS), 2011)
